# Measurements taken from patent US20240301031A1 (JIANGSU HENGRUI PHARMACEUTICALS, published 2024).
# T1: human IL-23 (CT048-H08H, Sino biological) (human, UniProt Q9NPF7 20-189; P29460 23-328)
# T1 construct: Bought heterodimer
# T1 sequence (looked up) 1: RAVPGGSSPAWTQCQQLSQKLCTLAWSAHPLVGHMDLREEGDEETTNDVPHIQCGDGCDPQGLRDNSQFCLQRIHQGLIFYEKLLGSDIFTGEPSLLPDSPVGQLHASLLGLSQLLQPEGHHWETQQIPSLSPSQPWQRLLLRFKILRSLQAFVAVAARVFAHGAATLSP
# T1 sequence (looked up) 2: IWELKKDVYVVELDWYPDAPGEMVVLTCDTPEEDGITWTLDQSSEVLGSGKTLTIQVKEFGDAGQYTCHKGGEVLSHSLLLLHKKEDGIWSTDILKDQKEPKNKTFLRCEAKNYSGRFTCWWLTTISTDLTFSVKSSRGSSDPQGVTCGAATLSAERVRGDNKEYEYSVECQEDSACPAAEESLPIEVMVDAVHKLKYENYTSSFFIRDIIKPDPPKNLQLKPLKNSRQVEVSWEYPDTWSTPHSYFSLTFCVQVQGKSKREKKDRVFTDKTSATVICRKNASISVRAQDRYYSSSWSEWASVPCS
# T2: mouse APRIL (7907-AP/CF, R&D Systems) (mouse, UniProt Q9D777 96-241, limits assumed)
# T2 construct: Bought protein
# T2 sequence (looked up): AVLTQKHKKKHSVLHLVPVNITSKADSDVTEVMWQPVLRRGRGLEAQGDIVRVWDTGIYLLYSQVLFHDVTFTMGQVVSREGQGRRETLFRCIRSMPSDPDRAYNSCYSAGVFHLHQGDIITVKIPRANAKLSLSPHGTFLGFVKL
# T3: human APRIL (5860-AP-010/CF, R&D Systems) (human, UniProt O75888 115-250, limits assumed)
# T3 construct: Bought protein
# T3 sequence (looked up): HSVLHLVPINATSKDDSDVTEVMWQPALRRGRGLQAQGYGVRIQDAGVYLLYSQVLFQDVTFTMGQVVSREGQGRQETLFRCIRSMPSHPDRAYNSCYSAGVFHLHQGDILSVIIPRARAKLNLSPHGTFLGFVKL
# T4: cynomolgus monkey APRIL (APR-CM410B, Kactus) (cynomolgus monkey)
# T4 chain: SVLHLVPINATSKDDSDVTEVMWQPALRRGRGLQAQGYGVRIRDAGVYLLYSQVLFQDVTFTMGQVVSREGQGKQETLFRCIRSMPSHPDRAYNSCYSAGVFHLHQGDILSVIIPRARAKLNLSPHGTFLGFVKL
# T5: chimeric IL-12 (human p40-mouse p35) (human; mouse, UniProt P29460 23-328; P43431 23-215)
# T5 sequence (looked up) 1: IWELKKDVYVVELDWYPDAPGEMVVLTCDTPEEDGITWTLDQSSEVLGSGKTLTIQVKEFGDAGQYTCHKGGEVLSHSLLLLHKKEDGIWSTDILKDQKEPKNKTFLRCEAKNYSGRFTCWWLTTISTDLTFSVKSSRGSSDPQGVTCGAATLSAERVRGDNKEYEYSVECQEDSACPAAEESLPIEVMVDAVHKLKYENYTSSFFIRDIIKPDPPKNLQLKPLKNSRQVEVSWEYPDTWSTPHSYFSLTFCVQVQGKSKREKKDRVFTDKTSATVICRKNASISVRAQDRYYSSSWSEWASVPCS
# T5 sequence (looked up) 2: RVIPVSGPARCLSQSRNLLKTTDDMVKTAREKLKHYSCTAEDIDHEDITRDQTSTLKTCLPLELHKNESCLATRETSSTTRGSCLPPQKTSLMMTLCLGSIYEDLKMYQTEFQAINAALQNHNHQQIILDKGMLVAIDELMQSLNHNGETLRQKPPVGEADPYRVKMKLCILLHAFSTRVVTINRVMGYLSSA
# Legend:
# [1] = molecular target: T6, human BAFF (10056-HNCH, Sino biological) (human, UniProt Q9Y275 in part); experiment: SPR (Biacore), sample captured on Protein A, antigen flowed, 1:1 fit
# T6 construct: Bought protein
# T6 sequence (Q9Y275 134-285 limits assumed): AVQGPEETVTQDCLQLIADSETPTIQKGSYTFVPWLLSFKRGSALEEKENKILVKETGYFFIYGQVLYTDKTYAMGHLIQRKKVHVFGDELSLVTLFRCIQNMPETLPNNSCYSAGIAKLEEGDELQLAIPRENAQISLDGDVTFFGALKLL
# Description: (§1) A certain amount of test sample was subjected to affinity capture by a biosensor chip Protein A (GE, 29127556), then antigens at a series of concentration gradients were allowed to flow on the surface of the chip. The reaction signals were detected in real time by using Biacore (GE, 8K) to obtain association and dissociation curves. After the dissociation was completed for each cycle, the biochip was washed and regenerated with a 10 mM glycine-hydrochloric acid solution at pH 1.5 (GE, BR-1003-54). The experimental data were fitted using BIAevaluation version 4.1, GE software with a 1:1 model to obtain affinity values. The related antigen proteins used in this assay are as follows: human IL-23 (CT048-H08H, Sino biological), human IL-12 (CT050-H08H, Sino biological), human BAFF (10056-HNCH, Sino biological), human APRIL (5860-AP-010/CF, R&D Systems), cynomolgus monkey p40 (10215-CL, R&D Systems), cynomolgus monkey BAFF (BAF-CM412B, Kactus), cynomolgus monkey APRIL (APR-CM410B, Kactus), mouse BAFF (BAF-M521y, Acro Biosystems), and mouse APRIL (7907-AP/CF, R&D Systems).
# [2] = molecular target: T7, cynomolgus monkey BAFF (BAF-CM412B, Kactus) (cynomolgus monkey, UniProt A0A2K5V2X4 134-285); experiment: as above
# T7 construct: Bought protein
# Description: as §1
# [3] = molecular target: T1, human IL-23 (CT048-H08H, Sino …); experiment: as above
# Description: as §1
# [4] = molecular target: T2, mouse APRIL (7907-AP/CF, R&D Systems); experiment: as above
# Description: as §1
# [5] = molecular target: T3, human APRIL (5860-AP-010/CF, R&D …); experiment: as above
# Description: as §1
# [6] = molecular target: T4, cynomolgus monkey APRIL (APR-CM410B, …); experiment: as above
# Description: as §1
# [7] = molecular target: T8, mouse BAFF (BAF-M521y, Acro Biosystems) (mouse, UniProt Q9WU72 127-309); experiment: as above
# T8 construct: Bought protein
# T8 sequence (Q9WU72 127-309 limits assumed): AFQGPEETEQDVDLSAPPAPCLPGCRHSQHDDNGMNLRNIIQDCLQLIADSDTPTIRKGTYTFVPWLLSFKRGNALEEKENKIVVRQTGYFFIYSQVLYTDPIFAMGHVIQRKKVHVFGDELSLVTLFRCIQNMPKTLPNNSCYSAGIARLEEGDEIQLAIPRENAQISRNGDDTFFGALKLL
# Description: as §1
# [8] = molecular target: T5, chimeric IL-12 (human p40-mouse p35); experiment: cell-based or functional assay
Binder,Kd [1] [nM],koff [1] [s⁻¹],kon [1] [M⁻¹ s⁻¹],Kd [2] [nM],koff [2] [s⁻¹],kon [2] [M⁻¹ s⁻¹],Kd [3] [nM],koff [3] [s⁻¹],kon [3] [M⁻¹ s⁻¹],Kd [4] [nM],koff [4] [s⁻¹],kon [4] [M⁻¹ s⁻¹],Kd [5] [nM],koff [5] [s⁻¹],kon [5] [M⁻¹ s⁻¹],Kd [6] [nM],koff [6] [s⁻¹],kon [6] [M⁻¹ s⁻¹],Kd [7] [nM],koff [7] [s⁻¹],also measured
"TACI-Mab1 (other, also called TACI antibody fusion protein) heavy: EVQLVQSGAEVKKPGESLKISCKGSGYSFTTYWLGWVRQMPGKGLDWIGIMSPVDSDIRYSPSFQGQVTMSVDKSITTAYLQWNSLKASDTAMYYCARRRPGQGYFDFWGQGTLVTVSS[omitted - human IgG1 constant region]GGSSTSCREEQGEFYDHLLRDCISCASICGQHPKQCAAFCENK light: [omitted - about 200 residues]",0.0966,9.72e-05,1.01e+06,0.258,7.81e-05,303000,0.071,8.83e-05,1.24e+06,0.0077,2.89e-05,3.75e+06,0.0229,0.000488,2.14e+07,0.0323,0.000235,7.27e+06,0.0749,9.53e-05,kon [7]: 1.27e+06 M⁻¹ s⁻¹; IC50 (nM) for the inhibition of IL-12-induced IFNγ secretion [8]: 3.07 nM
"TACI-Mab2 (other, also called TACI antibody fusion protein) heavy: EVQLVQSGAEVKKPGESLKISCKGSGYSFTTYWLGWVRQMPGKGLDWIGIMSPVDSDIRYSPSFQGQVTMSVDKSITTAYLQWNSLKASDTAMYYCARRRPGQGYFDFWGQGTLVTVSS[omitted - human IgG1 constant region]GGSSTSCREEQGEFYDHLLRDCISCASICGQHPKQCAAFCENK light: STSCREEQGEFYDHLLRDCISCASICGQHPKQCAAFCENKLGGGGSGGGGSGGGGS[omitted - about 200 residues]",0.0238,5.32e-05,2.24e+06,0.0933,5.91e-05,633000,0.09,0.000103,1.14e+06,0.00821,2.62e-05,3.19e+06,0.0148,0.000172,1.16e+07,0.0331,0.000131,3.95e+06,0.0326,6.56e-05,kon [7]: 2.01e+06 M⁻¹ s⁻¹; IC50 (nM) for the inhibition of IL-12-induced IFNγ secretion [8]: 9.31 nM
